According to PubChem BioAssay AID624296 (National Center for Advancing Translational Sciences (NCATS), 2012):
The campaign covered roughly 350,000 compounds. About 9,900 (2.8%) were called active. This list was built around the results that the source calls inconclusive (neither active nor inactive); the mix of calls is not that of the screen. Calls follow the shape of the dose curve; as a rule, active = well fitted activation curve with a large enough effect; inconclusive = small, poorly fitted or top-dose-only effect; inactive = no such curve, though single readings can be large or run the other way. No potency is given beside an inconclusive call; the fits are too rough.

Assay: A quantitative high throughput screen for small molecules that induce DNA re-replication in MCF 10a normal breast cells. Also: nearly all actives have a fitted effect of over 50% in size. As to activity, positive = re-replication: % of control where 0% means no effect.
Conditions: MCF 10A DNA re-replication, Hoechst nuclear intensity, 48 h; activity, positive = re-replication: at 46.1 µM (top of the series)
Potency is read from the fitted curve at half-maximal effect; tags tell the direction and shape of the fitted curve.

Compound | Potency | activity, positive = re-replication
Cc1oc2c(CN3CCOCC3)c(O)ccc2c(=O)c1-c1ccc(Cl)cc1 | inconclusive [activator, single point] | –
C/C(=N\NC(=O)c1ccc(CN2CCc3ccccc3C2)cc1)c1ccccc1O | active: 23.1 µM | –
CCOCCCNC(=S)N1CCN(c2nc(-c3ccccc3)cs2)CC1 | inconclusive [activator, single point] | –
CC(C)NC(=O)C(=O)c1cn(C)c2ccccc12 | – | inactive: -1.02%
CC(C)N1CCN(S(=O)(=O)c2ccc3ccccc3c2)CC1 | – | inactive: -0.802%
CNc1sc(C(=O)c2cccs2)c(N)c1-c1nc2ccccc2s1 | inconclusive [activator, partial curve, poor fit] | –
COc1ccc(C=NNC(=O)CCCC(=O)NN=Cc2ccc(OC)c(OC)c2)cc1OC | – | inactive: -5.03%
COc1ccccc1NC(=S)NC1CCCC1 | – | inactive: 3.3%
CC1CCCCC1NC(=O)NC(=O)COC(=O)c1ccc(OC(F)F)cc1 (centres undefined) | inconclusive [activator, partial curve, poor fit] | –
Cc1nnsc1C(=O)NC1CCCc2c1cnn2-c1ccc(C(C)(C)C)cc1 (centres undefined) | inconclusive [activator, single point] | –
S=c1[nH]nc(C2COc3ccccc3O2)o1 (centres undefined) | inconclusive [activator, full curve, poor fit] | –
CCOC(=O)N1CCN(C(=O)CSCC(=O)Nc2nc(-c3ccc(Cl)s3)cs2)CC1 | – | inactive: 11.5%
CN(C(=O)c1ccc(Oc2ccc([N+](=O)[O-])cc2)cc1)C1CCCCC1 | inconclusive [activator, partial curve, poor fit] | –
CC(=O)Nc1cccc(Nc2nc(-c3cccs3)nc3ccccc23)c1 | inconclusive [activator, single point] | –
C=CCOc1ccc(C(c2c(C(=O)O)[nH]c3ccccc23)c2c(C(=O)O)[nH]c3ccccc23)cc1 | inconclusive [activator, single point] | –
COc1ccc(-n2c(C)c(C(=O)O)c3cc(OC)c4ccccc4c32)cc1 | inconclusive [activator, single point] | –
O=C(COC(=O)C1CCCN1C(=O)c1cccs1)c1ccccc1 (centres undefined) | inconclusive [activator, single point] | –
CCOC(=O)C1CCN(Cc2cc(=O)n3c(-c4ccccc4)csc3n2)CC1 | inconclusive [activator, partial curve, poor fit] | –
O=C(NNC(=O)C12CC3CC(CC(C3)C1)C2)c1ccccn1 | inconclusive [activator, single point] | –
